The test system of assay [1] is HSkMC (human skeletal muscle cells). The assay can be described thus: cytotoxicity call (relative viability < 0.9). To be noted: 10 µM.
The test system of assay [2] is HepG2. In words: cytotoxicity call (relative viability < 0.9). To be noted: 10 µM.
The test system of assay [3] is S. aureus RN4220. The assay can be described thus: growth inhibition call (relative growth <= 0.2). To be noted: 50 µM.

The list shows a part of the results.

With `Cc1ccccc1[C@@H](c1ncccc1C)N(C)C(=O)C1CCN(CCOc2ccc3ccccc3c2)CC1`, the cytotoxicity call in assay [1] and in assay [2] was “inactive” throughout. Further, in assay [3], the growth inhibition call was “inactive”.

As for `COc1ccccc1S(=O)(=O)N[C@H]1CC[C@H](CCNC(=O)C2CCOCC2)O[C@H]1CO`, the cytotoxicity call in assay [1] and in assay [2] was “inactive” in each case. Besides, the growth inhibition call in assay [3] is “inactive”.

Consider `CO[C@@H]1CN(C)C(=O)c2ccc(NS(C)(=O)=O)cc2OC[C@@H](C)N(S(=O)(=O)CC(F)(F)F)C[C@H]1C`, for which the cytotoxicity call in assay [1] and in assay [2] was “inactive” in each case. The growth inhibition call in assay [3] is “inactive”.

Consider `O=C(O)c1cc(O)ccc1O`, for which the cytotoxicity call in assay [1] and in assay [2] was “inactive” in each case. Besides, the growth inhibition call in assay [3] was “inactive”.

With `C[C@H](CO)N1C[C@H](C)[C@@H](CN(C)C(=O)c2ccccc2)Oc2cc(C#CC3(O)CCCC3)ccc2S1(=O)=O`, the cytotoxicity call in assay [1] and in assay [2] was “inactive” in each case. For the same compound, in assay [3], the growth inhibition call was “inactive”.

For the compound `C[C@H]1CN([C@@H](C)CO)C(=O)c2cc(-c3cncnc3)cnc2O[C@@H]1CN(C)C(=O)CN1CCOCC1`, the cytotoxicity call in assay [1] and in assay [2] was “inactive” throughout. For the same compound, the growth inhibition call in assay [3] was “inactive”.

As for `NCc1nccs1`, the cytotoxicity call in assay [1] and in assay [2] was “inactive” in each case. The growth inhibition call in assay [3] was “inactive”.

With `Cc1ccc(S(=O)(=O)Nc2ccc3c(c2)C(=O)N([C@@H](C)CO)C[C@H](C)[C@@H](CN(C)Cc2ccc(Cl)c(Cl)c2)OCCCC[C@@H](C)O3)cc1`, the cytotoxicity call in assay [1] and in assay [2] was “active” each time. In addition, the growth inhibition call in assay [3] is “inactive”.

On to `CC(C)(C)[S@](=O)N1Cc2cc(C(=O)NCc3ccccn3)nc(-c3cccc(-c4ccccc4F)c3)c2[C@@H]1CCO`, for which the cytotoxicity call in assay [1] and in assay [2] was “inactive” each time. Further, in assay [3], the growth inhibition call was “inactive”.

Take `C[C@H](CO)N1C[C@H](C)[C@@H](CN(C)C(=O)c2cnccn2)Oc2ncc(-c3cccc(C#N)c3)cc2C1=O`: the cytotoxicity call in assay [1] and in assay [2] was “inactive” each time. Also, in assay [3], the growth inhibition call is “inactive”.

For the compound `C[C@H](CO)N1C[C@H](C)[C@@H](CN(C)S(=O)(=O)c2ccc(Cl)cc2)OCCCC[C@H](C)Oc2ccc(NC(=O)Nc3ccc(F)cc3)cc2C1=O`, the cytotoxicity call in assay [1] and in assay [2] was “inactive” throughout. Moreover, the growth inhibition call in assay [3] is “inactive”.

For `C[C@H]1CCCCO[C@H](CN(C)C(=O)C2CCCCC2)[C@@H](C)CN([C@@H](C)CO)C(=O)c2cc(NC(=O)c3ccncc3)ccc2O1`, the cytotoxicity call in assay [1] and in assay [2] was “inactive” in each case. Also, the growth inhibition call in assay [3] was “inactive”.

In the case of `CC(C)CN[C@H]1CCS(=O)(=O)C1`, the cytotoxicity call in assay [1] and in assay [2] was “inactive” in each case. In addition, the growth inhibition call in assay [3] was “inactive”.

As for `O=C(C[C@@H]1C=C[C@H](NC(=O)c2ccncc2)[C@@H](CO)O1)NCc1ccncn1`, the cytotoxicity call in assay [1] and in assay [2] was “inactive” each time. The growth inhibition call in assay [3] was “inactive”.

On to `C[C@H]1CN([C@@H](C)CO)S(=O)(=O)c2ccc(-c3cccnc3)cc2O[C@H]1CN(C)C(=O)NC1CCCC1`, for which the cytotoxicity call in assay [1] and in assay [2] was “inactive” in each case. Besides, the growth inhibition call in assay [3] is “inactive”.

Turning to `CCCCC1=NC2(CCCC2)C(=O)N1Cc1ccc(-c2ccccc2-c2nnn[nH]2)cc1`, the cytotoxicity call in assay [1] and in assay [2] was “inactive” throughout. The growth inhibition call in assay [3] is “inactive”.

Take `CO[C@@H]1CN(C)C(=O)c2cc(NC(C)=O)ccc2OC[C@@H](C)N(S(=O)(=O)c2cn(C)cn2)C[C@@H]1C`: the cytotoxicity call in assay [1] and in assay [2] was “inactive” throughout. Besides, in assay [3], the growth inhibition call is “inactive”.

For the compound `COCCNC(=O)C[C@@H]1C[C@H]2c3cc(NC(=O)CN(C)C)ccc3O[C@H]2[C@@H](CO)O1`, the cytotoxicity call in assay [1] and in assay [2] was “inactive” each time. In addition, the growth inhibition call in assay [3] is “inactive”.

As to `C[C@H]1CCCCO[C@@H](CN(C)C(=O)Nc2ccccc2)[C@@H](C)CN([C@@H](C)CO)C(=O)c2cc(NC(=O)Cc3ccccc3)ccc2O1`, the cytotoxicity call in assay [1] and in assay [2] was “inactive” in each case. In assay [3], the growth inhibition call was “inactive”.

Consider `CO[C@@H]1CN(C)C(=O)c2ccc(NC(=O)NC(C)C)cc2OC[C@@H](C)N(Cc2ccc(-c3ccccn3)cc2)C[C@@H]1C`, for which the cytotoxicity call in assay [1] and in assay [2] was “inactive” throughout. For the same compound, the growth inhibition call in assay [3] is “inactive”.

As for `C[C@H](CO)N1C[C@H](C)[C@@H](CN(C)C(=O)CCC(F)(F)F)OCCCC[C@H](C)Oc2ccc(NC(=O)Nc3ccc4c(c3)OCO4)cc2C1=O`, the cytotoxicity call in assay [1] and in assay [2] was “inactive” throughout. Also, the growth inhibition call in assay [3] is “inactive”.

With `C[C@H](CO)N1C[C@H](C)[C@@H](CN(C)S(=O)(=O)c2cn(C)cn2)Oc2ccc(NC(=O)Cc3ccccc3)cc2C1=O`, the cytotoxicity call in assay [1] and in assay [2] was “inactive” throughout. Moreover, the growth inhibition call in assay [3] was “inactive”.

For the compound `COc1ccc(S(=O)(=O)Nc2ccc3c(c2)CC(=O)N([C@H](C)CO)C[C@@H](C)[C@H](CN(C)S(=O)(=O)c2ccc(OC)cc2)O3)cc1`, the cytotoxicity call in assay [1] and in assay [2] was “inactive” in each case. For the same compound, in assay [3], the growth inhibition call was “inactive”.

Take `CON=C(C(=O)NC1C(=O)N2C(C(=O)OC(C)OC(C)=O)=C(COC(N)=O)CSC12)c1ccco1` (centres undefined): the cytotoxicity call in assay [1] and in assay [2] was “inactive” each time. Moreover, the growth inhibition call in assay [3] is “inactive”.

Take `C[C@H](CO)N1C[C@H](C)[C@@H](CN(C)S(=O)(=O)c2ccccc2)Oc2c(NS(=O)(=O)c3cn(C)cn3)cccc2C1=O`: the cytotoxicity call in assay [1] and in assay [2] was “inactive” in each case. Moreover, the growth inhibition call in assay [3] is “inactive”.

Regarding `C[C@@H]1CN([C@@H](C)CO)C(=O)c2cc(C#CCN(C)C)cnc2O[C@H]1CN(C)S(=O)(=O)c1cn(C)cn1`, the cytotoxicity call in assay [1] and in assay [2] was “inactive” throughout. In addition, in assay [3], the growth inhibition call was “inactive”.

For `C[C@H](CO)N1C[C@H](C)[C@@H](CN(C)C(=O)Nc2ccc(F)cc2)Oc2c(NS(=O)(=O)c3cn(C)cn3)cccc2C1=O`, the cytotoxicity call in assay [1] and in assay [2] was “inactive” in each case. Further, in assay [3], the growth inhibition call is “inactive”.

Consider `C[C@@H]1CCCCO[C@@H](CN(C)Cc2ccc(C(=O)O)cc2)[C@@H](C)CN([C@@H](C)CO)C(=O)c2cc(NC(=O)c3ccccc3)ccc2O1`, for which the cytotoxicity call in assay [1] and in assay [2] was “inactive” in each case. In addition, in assay [3], the growth inhibition call was “inactive”.

These data come from the antibiotic and cytotoxicity screens of Wong et al. (2023).
